Measured values from PMC9911399, “Two distinct binding modes provide the RNA-binding protein RbFox with extraordinary sequence specificity”.
Where a chain is given by its changes, count along the chain named. The list shows a part of the results.

T1: RBFOX1 RRM RbFoxmut (Fox-RRM*) (Homo sapiens, UniProt Q9NWB1 109-208, R118D;E147R;N151S;E152T)
T1 sequence: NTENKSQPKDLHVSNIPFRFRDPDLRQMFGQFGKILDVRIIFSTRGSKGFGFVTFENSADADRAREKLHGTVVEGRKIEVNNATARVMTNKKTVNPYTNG

B1: CCUGUUG (DNA:RNA)
RNA: GGGAGACCGGAAUUCAGAUUGUCCCCUGUUGUUAAAUCCCGUCGUAGCCACCA
DNA 1: CAATCTGAATTCCGGTCTCCC
DNA 2: TGGTGGCTACGACGGGATT
B2: CCCUACA (DNA:RNA)
RNA: B1 RNA with U27C, G28U, U29A, U30C, G31A
DNA 1: CAATCTGAATTCCGGTCTCCC
DNA 2: TGGTGGCTACGACGGGATT
B3: GCGUCUU (DNA:RNA)
RNA: B1 RNA with C25G, U27G, G28U, U29C, G31U
DNA 1: CAATCTGAATTCCGGTCTCCC
DNA 2: TGGTGGCTACGACGGGATT
B4: UCGUAGC (DNA:RNA)
RNA: B1 RNA with C25U, U27G, G28U, U29A, U30G, G31C
DNA 1: CAATCTGAATTCCGGTCTCCC
DNA 2: TGGTGGCTACGACGGGATT
B5: AACCGAU (DNA:RNA)
RNA: GGGAGACCGGAAUUCAGAUUGUCCAACCGAUUUAAAUCCCGUCGUAGCCACCA
DNA 1: CAATCTGAATTCCGGTCTCCC
DNA 2: TGGTGGCTACGACGGGATT
B6: AUAAACC (DNA:RNA)
RNA: B5 RNA with A26U, C27A, C28A, G29A, A30C, U31C
DNA 1: CAATCTGAATTCCGGTCTCCC
DNA 2: TGGTGGCTACGACGGGATT
B7: GGUGUAA (DNA:RNA)
RNA: B1 RNA with C25G, C26G, U30A, G31A
DNA 1: CAATCTGAATTCCGGTCTCCC
DNA 2: TGGTGGCTACGACGGGATT
B8: CGACGCA (DNA:RNA)
RNA: B5 RNA with A25C, A26G, C27A, A30C, U31A
DNA 1: CAATCTGAATTCCGGTCTCCC
DNA 2: TGGTGGCTACGACGGGATT
B9: GGGCUUA (DNA:RNA)
RNA: B1 RNA with C25G, C26G, U27G, G28C, G31A
DNA 1: CAATCTGAATTCCGGTCTCCC
DNA 2: TGGTGGCTACGACGGGATT
B10: AAUAGAA (DNA:RNA)
RNA: B5 RNA with C27U, C28A, U31A
DNA 1: CAATCTGAATTCCGGTCTCCC
DNA 2: TGGTGGCTACGACGGGATT
B11: GAAUGAC (DNA:RNA)
RNA: B5 RNA with A25G, C27A, C28U, U31C
DNA 1: CAATCTGAATTCCGGTCTCCC
DNA 2: TGGTGGCTACGACGGGATT
B12: CGCGGGG (DNA:RNA)
RNA: B1 RNA with C26G, U27C, U29G, U30G
DNA 1: CAATCTGAATTCCGGTCTCCC
DNA 2: TGGTGGCTACGACGGGATT
B13: GGUGCGC (DNA:RNA)
RNA: B1 RNA with C25G, C26G, U29C, U30G, G31C
DNA 1: CAATCTGAATTCCGGTCTCCC
DNA 2: TGGTGGCTACGACGGGATT
B14: UCGUGAG (DNA:RNA)
RNA: B5 RNA with A25U, A26C, C27G, C28U, U31G
DNA 1: CAATCTGAATTCCGGTCTCCC
DNA 2: TGGTGGCTACGACGGGATT
B15: GGGAUUU (DNA:RNA)
RNA: B1 RNA with C25G, C26G, U27G, G28A, G31U
DNA 1: CAATCTGAATTCCGGTCTCCC
DNA 2: TGGTGGCTACGACGGGATT
B16: UUUGUGG (DNA:RNA)
RNA: B1 RNA with C25U, C26U, U30G
DNA 1: CAATCTGAATTCCGGTCTCCC
DNA 2: TGGTGGCTACGACGGGATT
B17: GAACGCA (DNA:RNA)
RNA: B5 RNA with A25G, C27A, A30C, U31A
DNA 1: CAATCTGAATTCCGGTCTCCC
DNA 2: TGGTGGCTACGACGGGATT
B18: AUCGCGU (DNA:RNA)
RNA: B5 RNA with A26U, C28G, G29C, A30G
DNA 1: CAATCTGAATTCCGGTCTCCC
DNA 2: TGGTGGCTACGACGGGATT
B19: GCCGCGG (DNA:RNA)
RNA: B1 RNA with C25G, U27C, U29C, U30G
DNA 1: CAATCTGAATTCCGGTCTCCC
DNA 2: TGGTGGCTACGACGGGATT
B20: CAAGUAU (DNA:RNA)
RNA: B5 RNA with A25C, C27A, C28G, G29U
DNA 1: CAATCTGAATTCCGGTCTCCC
DNA 2: TGGTGGCTACGACGGGATT

The binders below were run against T1, RBFOX1 RRM RbFoxmut (Fox-RRM*) (assay: EMSA; HiTS-Eq, 1 nM pool, 10 min; buffer printed only for the single-RNA assays: 10 mM Tris pH 7.5, 150 mM NaCl, 3.4 mM EDTA, 0.001% NP-40, 30 C). Details: tags: His6 N-terminal (pET28a); label: 5' 32P.
In short: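 A pool of RNA with 7 randomized nucleotides, 5′-radiolabelled and with DNA-annealed flanks, was equilibrated at 1 nM for 10 min in 50 µL with purified RbFox RRM, wild type or mutant, across increasing protein concentrations. Free RNA was separated by 8% native PAGE, excised, reverse-transcribed, barcoded by PCR and sequenced. Relative association constants were obtained from read-count changes of each RNA species versus the control reaction and normalised to the cognate motif.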

Binder	binding signal
B1	0.136 KA relative to UGCAUGU
B2	0.106 KA relative to UGCAUGU
B3	0.0648 KA relative to UGCAUGU
B4	0.107 KA relative to UGCAUGU
B5	0.0947 KA relative to UGCAUGU
B6	0.0693 KA relative to UGCAUGU
B7	0.0999 KA relative to UGCAUGU
B8	0.117 KA relative to UGCAUGU
B9	0.107 KA relative to UGCAUGU
B10	0.111 KA relative to UGCAUGU
B11	0.829 KA relative to UGCAUGU
B12	0.0735 KA relative to UGCAUGU
B13	0.0984 KA relative to UGCAUGU
B14	0.147 KA relative to UGCAUGU
B15	0.0579 KA relative to UGCAUGU
B16	0.106 KA relative to UGCAUGU
B17	0.171 KA relative to UGCAUGU
B18	0.165 KA relative to UGCAUGU
B19	0.0996 KA relative to UGCAUGU
B20	0.126 KA relative to UGCAUGU
